Results published in the supplement of paper PMC3334620.
Over roughly 33,000 sequences, “E-score (-0.5 to 0.5)” has its median near -0.056; the highest 2% begin near 0.38. The list shows a part of the results.

Target: Stb4 (UniProt P50104)
Test: PBM E-score (8-mer binding enrichment) (E-score (-0.5 to 0.5)); higher = stronger / more preferred TF binding; most listed sequences are background and not binding sites
Conditions: protein concentration: 200 nM; construct: GST-DNA-binding domain
Experimental: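 Universal 'all 10-mer' protein binding microarrays (Agilent AMADID 015681) probed with GST-tagged S. cerevisiae TFs (full-length or DBD) made by in vitro transcription/translation (PURExpress), about 100-200 nM. Bound TF was detected with fluorescent anti-GST. Each ungapped 8-mer (which stands for itself and its reverse complement) is scored by the PBM enrichment score (E-score), a modified Wilcoxon-Mann-Whitney statistic from -0.5 to +0.5, computed with the Universal PBM Analysis Suite. Scale: above 0.35 generally sequence-specific binding.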

| Sequence | PBM E-score |
| --- | --- |
| TACGAACA | -0.191 |
| CAGAGCTC | -0.0125 |
| GCGCGACA | 0.127 |
| GCACCAAC | -0.0228 |
| GAGTTACC | 0.0098 |
| ACGGTTCA | -0.00149 |
| AGAGATCT | -0.196 |
| AGGCACAA | -0.0779 |
| GAACCGTC | 0.0614 |
| ACGGGCTC | -0.082 |
| GCCACTTA | -0.0691 |
| TACGACTA | -0.155 |
| ATCTATTG | -0.00962 |
| GGGAATGA | 0.203 |
| GAGGTGCC | 0.168 |
| AGACGCGG | 0.135 |
| CCCCACTA | -0.0244 |
| CAGCATAC | -0.251 |
| AGGGTAAA | 0.0281 |
| CCAATCAA | -0.0593 |
| AACATATG | 0.0117 |
| AACTTAAT | 0.0351 |
| ACATAGTA | -0.124 |
| CCTTGAGA | -0.118 |
| CTATGCGA | -0.201 |

| Sequence | PBM E-score |
| --- | --- |
| CATGACCA | -0.136 |
| ATAATCAT | -0.0964 |
| ACCAGATC | -0.128 |
| GGCTAGCA | 0.0604 |
| CCCGTGCG | 0.22 |
| ACAACGCG | -0.0194 |
| CGATCCTA | -0.0737 |
| AGGGAACC | -0.0275 |
| GAGCTCGC | 0.0693 |
| GAGTGTAA | -0.203 |
| AAGGAAAA | -0.0632 |
| CCAGTATC | 0.0117 |
| AGGGCAAT | 0.0263 |
| AAGGCGGC | -0.0425 |
| CATAATCC | 0.045 |
| AGAACAGG | -0.0996 |
| TTGTTAAA | 0.0675 |
| GCGCAGTA | -0.016 |
| GATCGTCC | 0.124 |
| ACTACGTC | -0.133 |
| GAATGGGA | -0.0671 |
| ATATCTTC | 0.163 |
| CTTGCCCC | 0.0396 |
| CCGAATTA | 0.363 |
| CACGGTTC | -0.101 |

| Sequence | PBM E-score |
| --- | --- |
| AAGCACCC | 0.0662 |
| ACCTACCT | 0.0109 |
| ATGACGCC | -0.199 |
| AAATATGA | -0.262 |
| ATCGAACG | -0.169 |
| ACATCTGC | -0.229 |
| CTGAGGAC | 0.00314 |
| GGTGTCGA | -0.0694 |
| CGGTTAGC | 0.275 |
| CGTTAATA | -0.00514 |
| ATTAAGTA | 0.0384 |
| GGGACAAC | -0.0192 |
| GGGAAAAC | 0.059 |
| CAAGCTTA | -0.0186 |
| GACTGTCC | -0.0945 |
| GCCGGCCC | 0.272 |
| CAATCAGG | -0.158 |
| TATGACAA | -0.0924 |
| CGTAAGTC | -0.0191 |
| ACCATTCG | 0.0583 |
| ATTGCAAA | -0.00619 |
| CTTTAAAA | -0.049 |
| AATCTGAG | -0.0921 |
| CAATACGA | -0.0332 |
| ACGGTCTG | -0.202 |

| Sequence | PBM E-score |
| --- | --- |
| GTGCCCAA | -0.146 |
| GAGTATAC | -0.0191 |
| CAGCTACA | -0.175 |
| GCCTTGCC | -0.0425 |
| GACTAAGC | 0.0343 |
| TACAAGTA | -0.148 |
| GCACCGGC | 0.193 |
| AGGGCGTA | -0.24 |
| CGTGCCGA | 0.405 |
| ATCCTACG | -0.216 |
| ATAATCCA | -0.0426 |
| ATAGGGAG | -0.196 |
| GGGTACGA | -0.0141 |
| ATCTACAT | -0.0272 |
| CCCACTTC | 0.0624 |
| ATATCCAG | -0.114 |
| TAAACATA | -0.029 |
| CCGGTCGA | 0.149 |
| AAACATAA | -0.151 |
| ATTTGTTG | 0.0322 |
| AGGCAAAG | -0.249 |
| AATGGAGA | -0.0369 |
| ACTAGTCT | -0.248 |
| CGGTAGGA | 0.136 |
| GCCGCCGA | 0.331 |

| Sequence | PBM E-score |
| --- | --- |
| ATTCACGA | -0.192 |
| AGGGATAA | -0.158 |
| GACCCTGC | 0.1 |
| CTGTTATA | -0.0375 |
| AAGCTATT | -0.0911 |
| ACGACGAG | -0.316 |
| GATTGTAA | 0.00432 |
| CAACTTAG | -0.00205 |
| AAACGGAG | 0.0887 |
| GATGTTCA | -0.047 |
| GACGGTCC | 0.101 |
| ACAAGTTG | -0.115 |
| CAACGGGC | -0.0414 |
| GCCAACGA | -0.155 |
| AAATTTAG | 0.024 |
| AACAAACA | -0.0298 |
| CCGGAGCG | 0.273 |
| CCTGCGTC | -0.241 |
| TCTGTTAA | -0.202 |
| AGCACGCA | -0.155 |
| AAACCCCT | -0.202 |
| ACATGAGA | 0.0138 |
| ATTAGAAC | -0.0257 |
| ACGGGTTG | -0.0501 |
| GGTAAGCA | -0.0989 |

| Sequence | PBM E-score |
| --- | --- |
| ATGGGCGC | -0.158 |
| CCGAAGTC | 0.417 |
| CTACGCCA | -0.271 |
| GCACACCC | -0.0719 |
| ACTACGCT | -0.144 |
| TCAGGGCA | -0.18 |
| TGCATCCA | -0.156 |
| AGTAGGAC | -0.0988 |
| ACGTTAAG | -0.136 |
| ACTGATAG | -0.247 |
| TGCCACCA | -0.374 |
| CGGATACC | 0.41 |
| ACCTAAGC | 0.0479 |
| CGTTCTCC | -0.0997 |
| AGATCAGA | -0.379 |
| GGTGCTCA | 0.0304 |
| AATCTAGA | -0.126 |
| CGGACCGC | 0.29 |
| AGAAGCAC | 0.0152 |
| ATCTAACG | -0.0812 |
| TCTGGGCA | 0.172 |
| ACAAACAG | -0.22 |
| AGCCGACT | 0.261 |
| CGCGCCGA | 0.281 |
| CCCGGCCA | 0.217 |

| Sequence | PBM E-score |
| --- | --- |
| GATAAGAA | 0.052 |
| TGAAGACA | 0.00962 |
| AGCCGTAC | 0.127 |
| CGAGCATC | 0.174 |
| AGAACGAA | -0.238 |
| ACGTCCAC | -0.209 |
| AGCAGTCG | 0.0808 |
| AAAGGTAT | 0.0369 |
| ACCGAAAT | 0.316 |
| AGCCACCC | 0.0842 |
| AGCATAAA | 0.0111 |
| GAACCAAA | -0.115 |
| CAACTAAG | -0.196 |
| GCTGCGCC | -0.112 |
| CAAGTCTC | -0.0352 |
| CAGCTGCA | -0.06 |
| TTACGTAA | -0.339 |
| AGCCCTTC | -0.15 |
| TAAAGTGA | 0.00975 |
| ACTCCAAG | -0.275 |
| ACGGTAAA | 0.172 |
| GCCCTAGC | -0.122 |
| CATATTTA | -0.121 |
| GCGGTCAA | 0.0902 |
| CCGCGGTC | 0.108 |

| Sequence | PBM E-score |
| --- | --- |
| AAGATAAT | -0.0242 |
| GTCTAGCA | -0.104 |
| TTTGCAAA | -0.196 |
| TCACGTCA | -0.0663 |
| GAAGTGCA | -0.21 |
| AGTGGGGC | -0.109 |
| ACCTGCAG | -0.416 |
| AACTGTCA | -0.193 |
| AGTTGCGA | -0.282 |
| AGCTAGTC | -0.17 |
| CATCTCGC | -0.0526 |
| CCCTCGAG | -0.254 |
| CCTATGAG | -0.227 |
| AAGACGTC | -0.173 |
| AAAAACGC | 0.143 |
| AGATGACG | -0.348 |
| AGAGCGAC | -0.173 |
| GAGTTGCC | 0.197 |
| ACCCTTGA | -0.00133 |
| ACAGTGTA | -0.0881 |
| ACAATGCG | -0.115 |
| ATATGTCC | 0.145 |
| ACCCCCAT | -0.28 |
| CGTGGGAG | -0.113 |
| CCGAACCC | 0.37 |

| Sequence | PBM E-score |
| --- | --- |
| CTTCCTAA | -0.157 |
| CCGCACTA | 0.187 |
| TAATCCAA | -0.0845 |
| CCCGAGTA | 0.383 |
| CCCCAAAC | -0.258 |
| ACTCGAAG | -0.167 |
| CCCTCTCA | -0.334 |
| GCCACGAA | -0.187 |
| ATACTTTC | 0.133 |
| ACTCTGTC | -0.258 |
| CTTGATAA | -0.152 |
| GTCAGCAC | -0.0387 |
| CGCTCGCA | 0.104 |
| AAAACAGA | -0.0197 |
| CTGACGGC | 0.128 |
| AATTACGC | -0.24 |
| AGGCAAAA | -0.0302 |
| ATCACAGA | -0.155 |
| AGCCAGAT | 0.0138 |
